Measurements: the RNAGym collection of RNA variant scans (doi:10.1073/pnas.2313332121)
This sample is rich in variants without activity.

B1: TPR 5TU (parent)
chain: GGAUCUUCUCGAUCUAACAAAAAAGACAAAUCUGCCACAAAGCUUGAGAGCAUCUUCGGAUGCAGAGGCGGCAGCCUUCGGUGGCGCGAUAGCGCCAACGUUCUCAACUAUGACACGCAAAACGCGUGCUCCGUUGAAUGGAGUUUAUCAUG

Variants of: B1
Assay: polymerase ribozyme fitness, log enrichment relative to wild type (log ratio); higher = more active; in vitro selection for triplet polymerase activity
In short: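 Fitness is a logarithmic measure of how a genotype enriched relative to the wild type, with replicate averages weighted by inverse variance. The logarithm uses base 2, and enrichment came from Illumina sequencing of input and output libraries. Those libraries were PCR-built, transcribed mutants of each subunit of a heterodimeric triplet polymerase ribozyme, passed through one triplicate in vitro selection round that included frozen incubation at −7 °C, gel excision of extended constructs and streptavidin-bead capture. Genotypes were kept only if they had ≥10 input reads and ≥1 read per output.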

Variant | polymerase ribozyme fitness (log ratio)
C8G C14U A19C C75A G81A C85G C93U C118G | ≤ -4.2
C8G A16G G68A C96U A98G A119C A121C C125A | ≤ -4.2
C8G G11C A26U C38U C57U C95U A137G | ≤ -4.2
C8A G92C | -3.68
C8U A47C C54U C57U C85G C114U G140U | ≤ -4.2
C8A U9G A17C A30U A40G G50A A73G | ≤ -4.2
C8G U55A | -2.91
C8U A12U A47C C93U U104G | ≤ -4.2
C8A C54U C85G C95U | ≤ -4.2
C8U A30U U33A C63U G67C C118U | ≤ -4.2
C8G C14A U53A C57A C72A G88U C95U U139A | ≤ -4.2
C8G A28U C87U C105U | ≤ -4.2
C8G C36G G92A C96U | ≤ -4.2
C8U C27A A29U A66U G67A A120U U134A | ≤ -4.2
C8U C95U C116G U135A | -3.94
C8A G25U A39G A47G C63U U101G | ≤ -4.2
C8G U13A C27U C36A G74A A89G C116A C131G | ≤ -4.2
C8U A16U U53A C87U U144C | ≤ -4.2
C8G G83C | ≤ -4.2
C8U A16U U33G G42C A49U C85A U146G G152C | ≤ -4.2
C8U C63U G86U | ≤ -4.2

Variant | polymerase ribozyme fitness (log ratio)
C8U A19C G50A C96U | ≤ -4.2
C8A U56A A66C G94A A98U | ≤ -4.2
C8U C27G C54A C96G C118U A142C | ≤ -4.2
C8U A16C C35U A41C G59C U61A A73U G88U G100U C103U G141A | ≤ -4.2
C8G A23U G83A | ≤ -4.2
C8U A23C C27U A37C U55A C72A G74A G94A U102G | ≤ -4.2
C8U A17G U55G A60C C76A A89G C95G G128A U144C C149U | ≤ -4.2
C8U A37C C93A U151G | ≤ -4.2
C8A C32U G59C G74C C105U U135G G143A | ≤ -4.2
C8G C38G U44C G74U G88A A107G U146G | ≤ -4.2
C8G A20U C32G A40G | ≤ -4.2
C8A C54G G59U C75U G81A G84U G124C A138U G141C U151G | ≤ -4.2
C8G C43A C72A U90C G133U G143C | ≤ -4.2
C8G G42A G59U A66U C87G U139G | ≤ -4.2
C8U A28C C54U C87A A106G | ≤ -4.2
C8A G50A G71C G92A | ≤ -4.2
C8G G25C C35A A60U G65C G71A C72U G81U G88C C93G C114G A115C A121G | ≤ -4.2
C8U A49U A52G | -3.79
C8A C87G U111A C118U | ≤ -4.2
C8G C14G A41C G48A | ≤ -4.2
C8G C14U G25C A52U C93U U104G U144A | ≤ -4.2

Variant | polymerase ribozyme fitness (log ratio)
C8G A12C U78C C93U C99A A115C | ≤ -4.2
C8G A29C C32G C51U G58C G94C | ≤ -4.2
C8A G83U U90G C118A | ≤ -4.2
C8U A22G A29U U44G A47C U78G C85G A98U A107C | ≤ -4.2
C8A C18U A20G U45A G59C G62A C76U C114G | ≤ -4.2
C8U C75U G80C G88U U90C C95G | ≤ -4.2
C8U C10A A23C G59U G88U | ≤ -4.2
C8U A40C U45A G83A C93A C99A C132G U148A | ≤ -4.2
C8U A98U U135G U148C | ≤ -4.2
C8U C69U C76G C93G U144A | ≤ -4.2
C8G U33C C35A G84U | ≤ -4.2
C8G C35G G59A G84A G94C G100U U130A U135C | ≤ -4.2
C8G G67C G92U C99U A107U U148A | ≤ -4.2
C8U C32G C35U G48U A73C G81A G92U | ≤ -4.2
C8U A19C U33G U53A U55A C96G C108U | -3.8
C8G C10G U31G C38U A49C G65U G71U G83U C105G U145A | ≤ -4.2
C8G C27A A49G U53G G67C C96G U144A C149A | ≤ -4.2
C8A G68A A91U A97C A119G U139A G141U | ≤ -4.2
C8U G11C C76U G88U G94C A97C U135A G140A | ≤ -4.2
C8G A40C C54U G58U G84A | ≤ -4.2
C8U C14G C51U C75U U90G C96A A97G U148C | ≤ -4.2

Variant | polymerase ribozyme fitness (log ratio)
C8G C10G C14G A41C G83U A119U G141C | ≤ -4.2
C8A U45G C51A A52C A73C A91U G94A A106G C118A | ≤ -4.2
C8U A17G A21U C85U G126A U139C | ≤ -4.2
C8G A29C G58C G84C A122G U145G | ≤ -4.2
C8G C35A G88C U148C | ≤ -4.2
C8G C10A A28U A39C G50A G67C G92U C108U | ≤ -4.2
C8U C14G U33G C51G C54U C57A U77G C87G G136U | ≤ -4.2
C8G A52G G92C C96A U148A U151G | ≤ -4.2
C8U A17G A23G G58C G94U A110C U111G | ≤ -4.2
C8G G34U A73C C85G U148G | ≤ -4.2
C8G A22U G58A U61A U77G G88A | ≤ -4.2
C8U C35U G80A G83A U102G U145C U146C | ≤ -4.2
C8U A29G G62A C93U C95A U144A | ≤ -4.2
C8A C14U A37G C54U C85U | ≤ -4.2
C8G A22U C85U C103U | ≤ -4.2
C8G A49C G83C | ≤ -4.2
C8G C10U G50U C93U C95A C116U C129A | ≤ -4.2
C8G A47G U104A C105A A106U G141U | ≤ -4.2
C8U A24U U55G C69U G74U C87A A138U | ≤ -4.2
C8A C114G A142C | ≤ -4.2
